Test results from PubChem BioAssay AID624417 (National Center for Advancing Translational Sciences (NCATS), 2012).
Screen size: about 410,000 compounds; about 6,400 (1.6%) were called active. The shares of active, inactive and inconclusive entries below differ from those in the screen. The call rests on the fitted dose curve; in most records, active means well fitted inhibition curve with a large enough effect; inconclusive means small, poorly fitted or top-dose-only effect; inactive means no such curve, though single readings can be large or run the other way. Potencies of inconclusive entries are doubtful fits and often do not repeat.

Target: Glucagon-like peptide 1 receptor (Homo sapiens) (UniProt P43220)
UniProt P43220, sequence (P43220 whole entry, looked up): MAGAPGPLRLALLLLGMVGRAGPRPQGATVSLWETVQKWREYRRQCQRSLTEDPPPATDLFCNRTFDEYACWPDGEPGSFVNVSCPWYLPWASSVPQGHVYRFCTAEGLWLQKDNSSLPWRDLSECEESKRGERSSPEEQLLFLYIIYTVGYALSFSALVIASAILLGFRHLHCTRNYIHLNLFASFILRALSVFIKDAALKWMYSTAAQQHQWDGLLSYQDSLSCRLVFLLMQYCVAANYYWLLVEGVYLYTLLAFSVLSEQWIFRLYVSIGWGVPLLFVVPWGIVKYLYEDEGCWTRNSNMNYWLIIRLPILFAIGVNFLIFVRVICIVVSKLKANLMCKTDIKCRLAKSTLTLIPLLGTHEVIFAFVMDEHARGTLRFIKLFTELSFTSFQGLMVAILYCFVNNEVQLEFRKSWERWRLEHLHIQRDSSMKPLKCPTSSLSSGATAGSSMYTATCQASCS
Assay: qHTS of GLP-1 Receptor Inverse Agonists (Inhibition Mode); further: nearly all actives have a fitted effect of over 55% in size
Conditions: HEK293 GLP-1R CRE-luciferase, luminescence, 24 h, GLP-1R form is constitutively active; activity change, negative = inhibition: at 38.3 µM (top of the series) unless noted
Outline: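 Using stably transfected HEK293 (constitutively active GLP-1R, cAMP-luciferase reporter), compounds were incubated 24 hr and luciferase measured by luminescence.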
On the % scale 0 is the no-effect control and ±100 the full control effect; potency means the concentration at half of the fitted maximal effect; tags describe the fitted curve by direction and shape.

Potency, inconclusive:
O=C(Nc1ccc(S(=O)(=O)N2CCN(c3ccccc3)CC2)cc1)c1cccs1 28.2 µM [inhibitor, single point]
Cc1cccc(N(CC(=O)NCCSCc2ccco2)S(=O)(=O)c2ccccc2)c1 20 µM [inhibitor, single point]
Cc1nn(-c2ccccc2)c(N2CCCC2)c1/C=N/NC(=O)c1cc(-c2ccccn2)nc2ccccc12 10 µM [inhibitor, partial curve]
COc1ccccc1Cc1c(-c2ccco2)nc2cc(C)c(Br)c(C)n12 14.1 µM [inhibitor, partial curve, poor fit]
O=C(c1ccc(F)cc1)N1CCN(c2cc(N3CCCCC3)c(F)cc2[N+](=O)[O-])CC1 12.6 µM [inhibitor, single point]
COC(=O)c1scc(-c2ccc(C)cc2)c1S(=O)(=O)Nc1c(C)cc(C)cc1C 10 µM [inhibitor, partial curve, poor fit]
Cc1noc(C)c1CSc1nc2ccccc2c(=O)n1-c1ccc(Cl)cc1 5.62 µM [inhibitor, full curve]
COc1ccc(Cc2nc(C(=O)Nc3ccc(F)cc3)cs2)cc1 28.2 µM [inhibitor, single point]
O=S(=O)(c1ccccc1)N1CCN(S(=O)(=O)c2ccccc2)c2ccccc21 28.2 µM [inhibitor, single point]
O=C1CCN(CCc2ccccc2)CCN1CCSc1ccc(Br)cc1 28.2 µM [inhibitor, single point]
CCOC(=O)c1c(C)[nH]c(C=O)c1Cc1cccc(Cl)c1 12.6 µM [inhibitor, single point]
COc1ccc(C(=O)N2CCc3ccc(NC(=O)c4ccccn4)cc3C2)cc1F 12.6 µM [inhibitor, single point]
CC1COCC(C)N1C1=C(Cl)C(=O)c2ccccc2C1=O (centres undefined) 14.1 µM [inhibitor, single point]
COc1ccccc1C(NC(C)=O)c1cc(Cl)c2cccnc2c1O (centres undefined) 2.51 µM [inhibitor, partial curve, poor fit]
CC(=O)N(c1ccc(Cl)cc1)c1cn(C(C)=O)c2ccccc12 8.91 µM [inhibitor, partial curve, poor fit]
N#Cc1nc(COc2cccc(Cl)c2)oc1NCc1ccco1 28.2 µM [inhibitor, single point]
O=C(CN(Cc1ccco1)C(=O)c1ccccc1)Nc1ccc(Cl)c(Cl)c1 10 µM [inhibitor, partial curve, poor fit]
O=C(c1ccc(Br)s1)N1CCc2ccccc2C1 28.2 µM [inhibitor, single point]
Cc1ccc(CNC(=O)c2cc(S(=O)(=O)N3CCCCC3)cn2C)cc1 3.16 µM [inhibitor, partial curve, poor fit]
Clc1ccc(OCCSc2ncccn2)cc1 28.2 µM [inhibitor, single point]
COC(=O)c1ccc(CSc2nnc(-c3ccc4c(c3)OCO4)n2-c2ccccc2)o1 10 µM [inhibitor, partial curve, poor fit]
CCCCOc1ccc(N(CC(=O)NCC2CCCO2)C(=O)CCC(=O)Nc2nccs2)cc1 (centres undefined) 0.501 µM [inhibitor, full curve, poor fit]
CC1(C(=O)NCc2cccc3ccccc23)CCN1Cc1ccc2ccccc2c1 (centres undefined) 20 µM [inhibitor, single point]
CNc1oc(-c2ccc(Cl)cc2)nc1P(=O)(c1ccccc1)c1ccccc1 10 µM [inhibitor, partial curve, poor fit]
COc1ccccc1N1CCN(C(=O)Nc2cccc(Cl)c2)CC1 28.2 µM [inhibitor, single point]
O=C(c1cccs1)N1CCCC(N2CCN(c3cccc(C(F)(F)F)c3)CC2)C1 (centres undefined) 10 µM [inhibitor, partial curve, poor fit]
C=C(C)Cn1c(C)cc(C)c(S(=O)(=O)c2ccccc2C)c1=O 10 µM [inhibitor, partial curve, poor fit]
CCOc1ccc(N2C(=O)c3ccccc3NC2(C)CC)cc1 (centres undefined) 28.2 µM [inhibitor, single point]
CC(=O)N1c2ccccc2C(=O)C1N1CCN(c2cc(Cl)ccc2C)CC1 (centres undefined) 28.2 µM [inhibitor, single point]
CC1(C)CC2CC(C)(CN2C(=O)c2cc(-c3ccc(O)cc3)on2)C1 (centres undefined) 11.2 µM [inhibitor, partial curve, poor fit]
CC(O)(c1ccc(F)c(F)c1)c1nc(/C=C/c2ccc(C(F)(F)F)cc2)cs1 (centres undefined) 12.6 µM [inhibitor, partial curve, poor fit]
CCOC(=O)c1cc(-c2ccc(Cl)cc2)nc2c1c(C)nn2CCC#N 28.2 µM [inhibitor, single point]
COc1ccc(Cl)cc1NC(=O)CN(C)C(=O)C12CC3CC(CC(Cl)(C3)C1)C2 10 µM [inhibitor, partial curve, poor fit]

Activity change, negative = inhibition, inactive:
Cc1nn(-c2ccccc2)c2sc(C(=O)O)cc12 3.04%
CCS(=O)(=O)c1ncc(N(Cc2cccc(F)c2)Cc2ccco2)c(C(=O)Nc2ccccc2Cl)n1 15.1%
Cc1nc2c(-c3ccccc3)c(C)[nH]n2c(=O)c1Cc1ccc(C(C)C)cc1 -29.8%
Cc1ccc(Cn2c(N)c(S(=O)(=O)c3cccs3)c3nc4ccccc4nc32)cc1 14.7%
CCC1CN(C(=O)Nc2ccccc2C(F)(F)F)c2ccccc2S1 (centres undefined) 11.7%
Cc1cccc(S(=O)(=O)N(C)C[C@@H]2OCc3cnnn3CCCC(=O)N([C@H](C)CO)C[C@@H]2C)c1 4.72%
